The list shows a part of the results, in another mix than the full data. Effects have a minus sign here.
Each compound was assayed against human ether-à-go-go-related gene (hERG) potassium channel (human, UniProt Q12809) (assay: primary screen, population patch clamp on CHO cells stably expressing hERG; higher = less effect of the substance).
Experimental: Briefly, Chinese hamster ovary (CHO) cells stably expressing the hERG channel were dislodged from tissue culture flasks and dispensed into PPC plates. […] During the recording, background leak currents were estimated by a 100 ms step to -80 mV from an initial holding potential of -70 mV and subtracted from the subsequent current measurement. The campaign was conducted in two phases using slight differences in recording protocol. In the first phase, the initial voltage pulse used a 100 ms step to -30 mV from a holding potential of -70 mV, a 2 s conditioning step to +25 mV, and a 2 s test step to -30 mV. During the second phase of the screen, the potential during the conditioning step was raised to +45 mV. In both phases of the campaign, a secondary voltage pulse was applied using the same parameters as the second phase initial pulse. The initial and secondary pulses were applied in the absence of compound, and upon application of 1 μM and 10 μM test concentrations. […]
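Further: peak tail current of the secondary pulse compared with the same well before compound.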

Structure (SMILES)	hERG current change (%, negative = inhibition) at 10uM [%]
Cc1ccccc1C(OCCN(C)C)c1ccccc1.O=C(O)CC(O)(CC(=O)O)C(=O)O (stereo not shown)	-44.4
CNCC[C@H](Oc1ccc(C(F)(F)F)cc1)c1ccccc1.Cl	-25
Br.CN1[C@@H]2CC[C@H]1CC(OC(=O)C(O)c1ccccc1)C2 (stereo partly shown)	3.45
CN[C@H]1CCc2cc(OC)c(OC)c(OC)c2-c2ccc(OC)c(=O)cc21	4.15
